For eleven substances, binding results are on record in PMC2991254.

By UniProt entry, the sequences of proteins in these tests, tags left out. Where a name states a change or a piece, a line headed by the entry shows the natural chain unless it says otherwise. Chains listed by the source or under a name are the forms on record and can include a tag or linker.
UniProt Q38838: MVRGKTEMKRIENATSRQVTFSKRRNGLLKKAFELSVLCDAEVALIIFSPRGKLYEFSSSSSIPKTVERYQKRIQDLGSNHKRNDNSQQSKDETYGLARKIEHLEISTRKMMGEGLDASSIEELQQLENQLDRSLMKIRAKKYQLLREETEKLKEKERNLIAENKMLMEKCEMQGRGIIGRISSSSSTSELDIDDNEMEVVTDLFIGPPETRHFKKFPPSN
AGL14 SIPK62-65MQD (Q38838, form named): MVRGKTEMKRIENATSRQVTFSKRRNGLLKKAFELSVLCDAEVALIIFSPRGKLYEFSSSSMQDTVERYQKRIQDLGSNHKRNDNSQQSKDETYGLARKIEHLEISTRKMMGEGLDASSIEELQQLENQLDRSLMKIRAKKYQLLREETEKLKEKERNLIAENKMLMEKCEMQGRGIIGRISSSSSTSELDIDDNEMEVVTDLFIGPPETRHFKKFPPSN
UniProt A2RVQ5: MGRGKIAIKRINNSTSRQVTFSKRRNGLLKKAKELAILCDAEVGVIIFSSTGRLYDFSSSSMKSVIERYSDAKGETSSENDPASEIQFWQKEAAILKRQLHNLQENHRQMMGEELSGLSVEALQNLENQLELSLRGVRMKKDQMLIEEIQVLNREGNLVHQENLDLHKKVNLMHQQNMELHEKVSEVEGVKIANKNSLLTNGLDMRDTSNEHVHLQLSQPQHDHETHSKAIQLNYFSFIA
UniProt Q38840: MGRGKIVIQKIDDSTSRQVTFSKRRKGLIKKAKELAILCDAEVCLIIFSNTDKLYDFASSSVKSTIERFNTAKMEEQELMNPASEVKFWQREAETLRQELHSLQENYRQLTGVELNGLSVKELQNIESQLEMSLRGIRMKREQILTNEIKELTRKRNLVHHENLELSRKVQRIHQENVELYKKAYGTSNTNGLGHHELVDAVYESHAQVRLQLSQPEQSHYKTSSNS
UniProt Q9FIS1: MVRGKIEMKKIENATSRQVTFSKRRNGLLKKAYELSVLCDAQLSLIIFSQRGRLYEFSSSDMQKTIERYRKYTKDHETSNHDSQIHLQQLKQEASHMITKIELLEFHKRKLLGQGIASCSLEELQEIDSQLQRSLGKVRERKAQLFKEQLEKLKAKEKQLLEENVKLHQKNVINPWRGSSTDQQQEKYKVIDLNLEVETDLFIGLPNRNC
UniProt Q9SI38: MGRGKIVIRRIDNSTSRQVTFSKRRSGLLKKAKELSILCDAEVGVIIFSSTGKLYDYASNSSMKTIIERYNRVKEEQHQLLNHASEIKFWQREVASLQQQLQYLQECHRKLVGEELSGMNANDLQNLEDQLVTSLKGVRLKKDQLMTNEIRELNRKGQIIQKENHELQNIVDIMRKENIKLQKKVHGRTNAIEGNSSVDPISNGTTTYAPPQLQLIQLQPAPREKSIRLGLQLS
UniProt P35631: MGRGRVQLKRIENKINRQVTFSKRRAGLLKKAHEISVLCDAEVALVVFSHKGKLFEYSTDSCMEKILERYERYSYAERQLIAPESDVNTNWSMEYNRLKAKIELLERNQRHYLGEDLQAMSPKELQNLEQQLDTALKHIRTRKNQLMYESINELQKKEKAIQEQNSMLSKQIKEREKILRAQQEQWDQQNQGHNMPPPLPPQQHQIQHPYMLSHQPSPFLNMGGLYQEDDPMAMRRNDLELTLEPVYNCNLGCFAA
UniProt Q38876: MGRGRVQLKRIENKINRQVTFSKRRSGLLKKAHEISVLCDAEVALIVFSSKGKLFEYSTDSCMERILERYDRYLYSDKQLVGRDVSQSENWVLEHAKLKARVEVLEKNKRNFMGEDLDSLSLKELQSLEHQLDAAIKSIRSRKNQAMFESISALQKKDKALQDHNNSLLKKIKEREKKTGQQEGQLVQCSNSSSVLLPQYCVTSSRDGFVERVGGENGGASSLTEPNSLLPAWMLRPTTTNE
UniProt Q9FPN7: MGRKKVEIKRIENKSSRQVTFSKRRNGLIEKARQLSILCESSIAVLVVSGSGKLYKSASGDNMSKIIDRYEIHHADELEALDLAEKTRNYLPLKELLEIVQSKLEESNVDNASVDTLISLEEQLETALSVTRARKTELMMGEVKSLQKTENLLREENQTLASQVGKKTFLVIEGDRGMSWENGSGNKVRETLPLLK
UniProt P29384: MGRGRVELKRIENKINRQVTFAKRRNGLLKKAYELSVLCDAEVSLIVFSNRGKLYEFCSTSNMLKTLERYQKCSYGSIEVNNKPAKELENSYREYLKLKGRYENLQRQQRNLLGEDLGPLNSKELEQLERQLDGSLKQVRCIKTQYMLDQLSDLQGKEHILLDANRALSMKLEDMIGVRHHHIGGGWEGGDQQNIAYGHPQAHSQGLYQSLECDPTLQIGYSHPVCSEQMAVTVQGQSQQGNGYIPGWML
UniProt P29385: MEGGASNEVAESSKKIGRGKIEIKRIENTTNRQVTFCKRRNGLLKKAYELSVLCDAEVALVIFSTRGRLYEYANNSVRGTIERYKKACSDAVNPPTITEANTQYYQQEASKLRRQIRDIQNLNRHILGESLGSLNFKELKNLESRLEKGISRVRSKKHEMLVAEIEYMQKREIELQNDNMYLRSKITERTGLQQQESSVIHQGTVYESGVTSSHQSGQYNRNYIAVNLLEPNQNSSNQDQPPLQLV
UniProt P17839: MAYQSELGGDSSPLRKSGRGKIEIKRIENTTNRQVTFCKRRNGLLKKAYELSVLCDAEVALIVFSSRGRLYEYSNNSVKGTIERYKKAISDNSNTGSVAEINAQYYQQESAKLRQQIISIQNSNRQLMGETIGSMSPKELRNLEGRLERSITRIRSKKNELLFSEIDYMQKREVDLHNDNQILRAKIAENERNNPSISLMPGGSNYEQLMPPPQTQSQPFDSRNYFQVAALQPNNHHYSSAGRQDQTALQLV
UniProt Q39081: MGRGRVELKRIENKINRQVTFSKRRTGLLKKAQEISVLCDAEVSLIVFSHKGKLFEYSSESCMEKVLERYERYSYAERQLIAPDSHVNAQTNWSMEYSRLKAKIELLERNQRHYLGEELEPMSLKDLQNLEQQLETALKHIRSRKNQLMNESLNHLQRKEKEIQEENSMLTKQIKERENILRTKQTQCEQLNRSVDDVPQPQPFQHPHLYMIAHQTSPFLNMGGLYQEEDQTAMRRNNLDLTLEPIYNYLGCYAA
UniProt O64645: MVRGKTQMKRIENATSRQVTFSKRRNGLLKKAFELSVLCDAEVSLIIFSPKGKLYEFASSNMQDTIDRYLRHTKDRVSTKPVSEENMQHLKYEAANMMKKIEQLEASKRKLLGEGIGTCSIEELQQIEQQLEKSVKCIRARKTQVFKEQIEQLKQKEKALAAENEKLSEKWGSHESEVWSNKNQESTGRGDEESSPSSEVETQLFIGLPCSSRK

Holding throughout (assay): two-hybrid; matrix-based yeast two-hybrid, GAL4-AD and GAL4-BD fusions (pDEST22, pDEST32), in duplicate, at least two reporter genes; medium lacking Leu, Trp and His with 1 mM 3-amino-1,2,4-triazole, growth scored after 4 days at 20°C
On the technique in general: A reporter such as luciferase makes a cellular process visible.

Assay [1] concerns the target AGAMOUS LIKE14 (Arabidopsis thaliana) (UniProt Q38838).
The target in assay [2] is T1, AGL13 (Arabidopsis thaliana) (UniProt Q38837).
T1 sequence: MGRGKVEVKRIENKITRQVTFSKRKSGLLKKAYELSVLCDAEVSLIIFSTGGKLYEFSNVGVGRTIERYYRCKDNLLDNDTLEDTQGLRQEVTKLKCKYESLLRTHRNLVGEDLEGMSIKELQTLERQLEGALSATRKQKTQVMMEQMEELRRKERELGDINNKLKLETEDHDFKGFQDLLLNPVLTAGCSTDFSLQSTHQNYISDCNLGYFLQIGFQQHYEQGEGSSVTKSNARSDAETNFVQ

The target of assay [3] is AGL16 (Arabidopsis thaliana) (UniProt A2RVQ5).
For assay [4], the target named is AGL17 (Arabidopsis thaliana) (UniProt Q38840).
Assay [5] addresses AGL42 (Arabidopsis thaliana) (UniProt Q9FIS1).
For assay [6], the target named is T2, AGL71 (Arabidopsis thaliana) (UniProt Q9LT93).
T2 sequence: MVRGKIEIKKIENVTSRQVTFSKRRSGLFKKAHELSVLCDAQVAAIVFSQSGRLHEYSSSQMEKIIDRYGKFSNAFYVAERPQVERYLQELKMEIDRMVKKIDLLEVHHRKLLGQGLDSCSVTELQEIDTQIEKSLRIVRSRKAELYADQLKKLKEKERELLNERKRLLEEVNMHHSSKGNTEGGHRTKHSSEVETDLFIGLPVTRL

The target of assay [7] is ANR1 (Arabidopsis thaliana) (UniProt Q9SI38).
Assay [8] deals with APETALA1 (Arabidopsis thaliana) (UniProt P35631).
In assay [9] the target is FRUITFUL (Arabidopsis thaliana) (UniProt Q38876).
Assay [10] has as its target MADS … FLOWERING 2 (Arabidopsis thaliana) (UniProt Q9FPN7).
The target of assay [11] is SEP2 (Arabidopsis thaliana) (UniProt P29384).
Assay [12] has as its target …OOF2 (Arabidopsis thaliana) (UniProt P29385).

No constants are given. Whether binding was seen depends on the method and setting. Some binding calls cover weakened binding; strength is not graded here.

In the case of AG Q126H (from UniProt P17839 1-252), the binding entry in assay [1] is “no binding”; in assay [2] it was “no binding”; in assay [3], “binds”; in assay [4] it was “no binding”; in assay [5] it was “no binding”; in [6], “no binding”. For the same substance, the binding entry in [7] is listed as “no binding”; in [8] it was “no binding”; in [9] it was “no binding”; in assay [10] it was “no binding”; in [11] it was “binds”; in assay [12], “no binding”.

Consider AGAMOUS (from UniProt P17839 1-252), for which the binding entry is on record as “no binding” in assay [1]; “binds” in assay [2]; “binds” in assay [3]; “no binding” in assay [4]; “no binding” in [5]; “no binding” in [6]. In addition, the binding entry in [7] is on record as “no binding”; in assay [8], “no binding”; in assay [10], “no binding”; in assay [11], “binds”.

Turning to “AGAMOUS LIKE14 (from UniProt Q38838 1-221)”, the binding result is given as “no binding” in assay [1]; “no binding” in [2]; “binds” in assay [3]; “no binding” in [4]; “no binding” in assay [5]; “no binding” in assay [6]. Further, the binding result in assay [7] is “no binding”; in assay [8] it was “no binding”; in assay [9] it was “binds”; in [10] it was “no binding”; in [11] it was “no binding”; in assay [12], “no binding”.

For “AGL14 SIPK62-65MQD (from UniProt Q38838 1-221)”, the binding entry in assay [1] is “no binding”; in [2], “binds”; in [3], “binds”; in assay [4] it was “no binding”; in assay [5], “no binding”; in assay [6], “no binding”. Besides, the binding entry in assay [7] was “binds”; in assay [8], “binds”; in assay [9] it was “binds”; in assay [10] it was “no binding”; in [11], “binds”; in assay [12] it was “binds”.

In the case of AP1 I66V (from UniProt P35631 1-256), the binding entry in assay [1] was “no binding”; in assay [2], “no binding”; in [3], “binds”; in assay [4] it was “no binding”; in assay [5] it was “no binding”; in assay [6], “no binding”. The binding entry in [7] is recorded as “no binding”; in [8], “no binding”; in assay [9], “no binding”; in [10], “no binding”; in assay [11] it was “binds”; in assay [12], “no binding”.

On to “AP1 I66V/Y148N (from UniProt P35631 1-256)”, for which the binding entry in [1], in [2], in assay [3], in assay [4], in assay [5] and in assay [6] was “no binding” each time. The binding entry in assay [7], in assay [8], in assay [9], in assay [10], in assay [11] and in assay [12] was “no binding” each time.

Turning to AP1 Y148N (from UniProt P35631 1-256), the binding entry in assay [1] is reported as “no binding”; in assay [2], “binds”; in assay [3], “binds”; in assay [4] it was “no binding”; in assay [5], “no binding”; in assay [6], “no binding”. Besides, the binding result in assay [7] is listed as “no binding”; in assay [8] it was “binds”; in assay [9], “binds”; in assay [10] it was “no binding”; in [11] it was “binds”; in assay [12] it was “no binding”.

Regarding APETALA1 (from UniProt P35631 1-256), the binding entry is given as “no binding” in assay [1]; “no binding” in [2]; “binds” in assay [3]; “no binding” in assay [4]; “no binding” in assay [5]; “no binding” in assay [6]. In addition, the binding result in assay [7], in assay [9], in assay [10], in assay [11] and in [12] was “no binding” each time.

As for CAL N150Y (from UniProt Q39081 1-255), the binding result is given as “binds” in assay [1]; “binds” in assay [2]; “binds” in [3]; “binds” in assay [4]; “binds” in [5]; “no binding” in assay [6]. The binding entry in assay [7] is “no binding”; in assay [8], “binds”; in assay [9], “binds”; in assay [10], “no binding”; in assay [11] it was “binds”; in assay [12], “binds”.

“SHORT … PHASE (SVP1) (from UniProt Q9FVC1 1-240)”: the binding entry is on record as “no binding” in assay [2]; “binds” in [3]; “binds” in [4]; “binds” in assay [5]; “no binding” in assay [6]; “binds” in assay [7]. The binding result in assay [8], in assay [11] and in [12] was “binds” in each case.

Take “SUPPRESSOR OF OVEREXPRESSION OF CO 1 (from UniProt O64645 1-214)”: the binding result in [1], in assay [2], in assay [3], in assay [4], in assay [5] and in assay [6] was “binds” each time. Besides, the binding result is recorded as “binds” in assay [7]; “binds” in assay [8]; “no binding” in assay [10]; “binds” in [11]; “binds” in [12].
